# Results: PubChem BioAssay AID360 (National Center for Advancing Translational Sciences (NCATS), 2006)
# The whole screen tested about 48,000 compounds, of which about 550 (1.1%) were called active. Roughly 4% stayed inconclusive and do not appear here. No stated cut-off is given here; in the data, active means potency below about 15 µM; inconclusive means mostly about 16 µM to 33 µM; inactive means weaker than that. This is one part of the list.
# Biological target: Lysosomal acid glucosylceramidase (Homo sapiens) (UniProt P04062)
# Assay: Glucocerebrosidase;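 further: the screen sought inhibitors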
# Settings: purified enzyme, resorufin glucoside fluorescence (screen aimed at inhibitors), 20 min
# Outline: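 Normal human glucocerebrosidase (0.2 nM final) was assayed with resorufin β-D-glucopyranoside (30 uM final) in 50mM citric acid/KH2PO4, 10mM sodium taurocholate, 0.01% tween-20, pH 5.9. Compounds were titrated; fluorescence (Ex 548, Em 600) read after 20 min at RT.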
# Potency means the concentration at half of the fitted maximal effect.
# Chain of UniProt P04062 (P04062 whole entry, looked up): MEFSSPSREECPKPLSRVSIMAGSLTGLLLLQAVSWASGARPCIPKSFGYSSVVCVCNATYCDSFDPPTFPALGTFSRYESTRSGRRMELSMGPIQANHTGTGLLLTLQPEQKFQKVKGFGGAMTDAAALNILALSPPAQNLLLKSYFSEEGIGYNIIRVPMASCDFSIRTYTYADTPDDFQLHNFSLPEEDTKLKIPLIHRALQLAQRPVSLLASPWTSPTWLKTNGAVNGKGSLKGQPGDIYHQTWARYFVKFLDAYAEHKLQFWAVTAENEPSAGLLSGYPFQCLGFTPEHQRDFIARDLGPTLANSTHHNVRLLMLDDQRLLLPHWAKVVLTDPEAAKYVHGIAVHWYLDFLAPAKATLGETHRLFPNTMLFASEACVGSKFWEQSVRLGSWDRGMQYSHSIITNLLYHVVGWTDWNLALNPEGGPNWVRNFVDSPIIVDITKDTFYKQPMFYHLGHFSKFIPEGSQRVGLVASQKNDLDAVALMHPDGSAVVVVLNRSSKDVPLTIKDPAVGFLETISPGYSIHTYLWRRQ
row,Structure (SMILES),Potency
1,CCC(CC)C(=O)Nc1nnc(SCC(=O)N2CCN(c3ccccc3OC)CC2)s1,inactive: > 76.9 µM
2,COc1ccc(-n2nnnc2SCC(=O)NCc2ccco2)cc1OC,inactive: > 76.9 µM
3,COCCn1c(=N)c(C(=O)NCc2ccco2)cc2c(=O)n3ccccc3nc21,inactive: > 76.9 µM
4,Cc1ccc(Nc2nnc(SCC(=O)NCc3ccco3)s2)cc1,inactive: > 76.9 µM
5,CCOCCCNC(=O)C1CCN(S(=O)(=O)N2CC(C)CC(C)C2)CC1 (configuration not stated),inactive: > 76.9 µM
6,Cc1nn(C)c(C)c1CNC(=O)c1cc2n(n1)C(C(F)(F)F)CC(c1cccs1)N2 (configuration not stated),inactive: > 76.9 µM
7,CCOC(=O)C(NC(=O)C1CCCN1C(=O)OCc1ccccc1)C(=O)OCC (configuration not stated),inactive: > 76.9 µM
8,COc1ccc(C(CNC(=O)CN2C(=O)NC3(CC(C)CC(C)(C)C3)C2=O)N2CCOCC2)cc1 (configuration not stated),inactive: > 76.9 µM
9,C=CCN(C(=O)CNC(=O)c1ccco1)C(C(=O)NC1CCCCC1)c1ccccc1F (configuration not stated),inactive: > 76.9 µM
10,CCOC(=O)c1ccc(N2C(=O)CC(N3CCC(O)(c4ccc(Cl)cc4)CC3)C2=O)cc1 (configuration not stated),inactive: > 76.9 µM
11,COc1ccc(C2CC(=O)c3cnc(NC(=O)c4cc(OC)cc(OC)c4)nc3C2)cc1 (configuration not stated),inactive: > 76.9 µM
12,Cc1cc(C)c2c(=O)[nH]n(C3CC(C)N(C)CC3C)c2n1 (configuration not stated),inactive: > 76.9 µM
13,CCOC(=O)N1CCN(C(=O)CCCn2c(=O)[nH]c3ccccc3c2=O)CC1,inactive: > 76.9 µM
14,O=C(O)C1CCN(Cc2cnn(-c3ccccc3)c2-n2cccc2)CC1,inactive: > 76.9 µM
15,Cc1cccc(-n2nnnc2SCn2nnc3ccccc3c2=O)c1,inactive: > 76.9 µM
16,N#Cc1c(/N=C/c2ccco2)oc(-c2ccccc2)c1-c1ccccc1,inactive: > 76.9 µM
17,CCOc1ccc(OCC(=O)N2CCOCC2)cc1,inactive: > 76.9 µM
18,COc1cc(OC)nc(NC2OC(=O)c3ccccc32)n1 (configuration not stated),inactive: > 76.9 µM
19,CC(O)c1ccc2c(c1)OCCOCCN(C)CCOCCO2 (configuration not stated),inactive: > 76.9 µM

row,Structure (SMILES),Potency
1,CC1CN(C(=O)CSc2nnc(-c3ccc(Cl)cc3)n2C)CC(C)O1 (configuration not stated),inactive: > 76.9 µM
2,COCCNC(=O)C(c1ccc(C)o1)N(Cc1cccs1)C(=O)c1snc(C(N)=O)c1N (configuration not stated),inactive: > 76.9 µM
3,O=C(c1cccnc1)N1C2C=CC(C2)C1(C(F)(F)F)C(F)(F)F (configuration not stated),inactive: > 76.9 µM
4,COc1ccc(N2CCN(C(=O)COc3ccc4ccccc4c3)CC2)cc1,inactive: > 76.9 µM
5,N#CC(C(=O)NC1CC1)c1nc2ccccc2nc1N1CCCC1 (configuration not stated),inactive: > 76.9 µM
6,COC(=O)c1cccc(NC(=O)CSc2nnnn2C)c1,inactive: > 76.9 µM
7,COc1cc(Cn2c(N)c(C#N)c3nc4ccccc4nc32)cc(OC)c1,inactive: > 76.9 µM
8,Cc1noc(C)c1CSc1nc2ccccc2s1,inactive: > 76.9 µM
9,O=C(Cn1cccc1)Nc1ccc(OC(F)(F)F)cc1,active: 15.2 µM
10,N#Cc1ccc(CSc2nnc(-c3ccncc3)n2CCc2ccccc2)cc1,inactive: > 76.9 µM
11,CC(C)NC(=O)c1ccc2c(c1)N(CC(=O)N1CCOCC1)C(=O)C(C)(C)O2,inactive: > 76.9 µM
12,CCOC(=O)C1=C(C)N=C2SCCC(=O)N2C1c1cc(Br)ccc1OC (configuration not stated),inactive: > 76.9 µM
13,c1ccc2oc(SCc3cn4ccccc4n3)nc2c1,inactive: > 76.9 µM
14,COc1cc(OC)cc(-c2nnc(SCc3cccnc3)o2)c1,inactive: > 76.9 µM
15,CC(=O)c1cccc(NC(=O)c2cccc(S(=O)(=O)N(C)C)c2)c1,inactive: > 76.9 µM
16,CC1CCN(C(=O)Cn2c(=O)n(Cc3ccc4c(c3)OCO4)c(=O)c3ccccc32)CC1,inactive: > 76.9 µM
17,CCOC(=O)CCC(=O)N1CCOCCN(C(=O)CCC(=O)OCC)CCOCC1,inactive: > 76.9 µM
18,CC1CCCC(NC(=O)CSc2nnnn2C)C1C (configuration not stated),inactive: > 76.9 µM
19,Cc1c(C#N)c2ncnc(N)c2n1-c1ccccc1,inactive: > 76.9 µM

row,Structure (SMILES),Potency
1,COc1nc(N2CCOCC2)nc(-n2cccc2)n1,inactive: > 76.9 µM
2,Cc1ccc(-n2c(Cc3cccs3)nnc2SCC(=O)OC(C)C)cc1,inactive: > 76.9 µM
3,CCCN1C(=O)C(NC(=O)c2ccncc2)(C(F)(F)F)C2=C1CC(C)(C)CC2=O (configuration not stated),inactive: > 76.9 µM
4,O=C(CSc1nnc(-c2ccccn2)n1Cc1ccco1)c1ccc(-c2ccccc2)cc1,inactive: > 76.9 µM
5,CCN(Cc1ccncc1)S(=O)(=O)c1ccc(C(C)=O)cc1,inactive: > 76.9 µM
6,COc1ccc(OC)c2c(C)cc(N3CCN(C(=O)c4ccc(F)cc4)CC3)nc12,inactive
7,C/C(N)=C(/C#N)C(=O)CSc1nnc(Nc2cccc(C)c2)s1,inactive: > 76.9 µM
8,CCCNC(=O)NC1C(NC(=O)NCCC)N(C)C(=O)N1C (configuration not stated),inactive: > 76.9 µM
9,CC(NC(N)=O)C12CC3CC(CC(C3)C1)C2 (configuration not stated),inactive: > 76.9 µM
10,Cc1nc2c(C(=O)N3CCCCC3)cnn2c(C)c1Cc1ccccc1F,inactive: > 76.9 µM
11,CC(C)OC(=O)CSc1nnc(-c2ccc(Cl)cc2Cl)o1,inactive: > 76.9 µM
12,c1ccc(CCC2=NCCn3cccc32)cc1,inactive: > 76.9 µM
13,O=C(NCC1CCCO1)C1CCCCN1S(=O)(=O)c1ccc(F)cc1 (configuration not stated),inactive: > 76.9 µM
14,CCOC(=O)Cn1nnnc1CN(Cc1ccc(OC)cc1)Cc1cc2cc(C)ccc2[nH]c1=O,inactive
15,COC(=O)c1ccccc1NC(=O)CN(C)S(=O)(=O)c1ccc(OC)c(C)c1,inactive: > 76.9 µM
16,CCC(=O)Nc1ccc(N2CCN(Cc3ccccc3)CC2)cc1,inactive: > 76.9 µM
17,CCC(=O)N1c2ccccc2NC2=C(C(=O)CCC2)C1c1ccc(N(C)C)cc1 (configuration not stated),inactive: > 76.9 µM
18,CN(C)c1nc(C(=O)Nc2ccccc2)nc(N(C)C)n1,inactive: > 76.9 µM
19,Cc1ccc(SCCC(=O)N(C)C)cc1,inactive: > 76.9 µM
